Assay results as given in PubChem BioAssay AID1347073 (National Center for Advancing Translational Sciences (NCATS), 2019).
In all, about 45,000 compounds went through this assay and about 200 (0.44%) were called active. Not shown: some 7% with an inconclusive outcome. Calls come from the whole dose curve; as a rule, active = well fitted activation curve with a large enough effect; inconclusive = small, poorly fitted or top-dose-only effect; inactive = no such curve, though single readings can be large or run the other way. The list shows a part of the results.

Experiment: qHTS of TDP-43 Inhibitors: NCGC Sytravon Library Screen; note: 0% is about no effect; nearly all actives have a fitted effect of over 55% in size
Settings: yeast TDP-43 toxicity rescue, BacTiter-Glo growth, 24 h; series mostly up to 46.1 µM; growth rescue (activation): at the top concentration
Method in brief: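 TDP-43-expressing yeast, pregrown in raffinose, seeded at OD600 0.02 in galactose medium with compound for 24 hr at 30 deg C. Growth read by BacTiter-Glo luminescence, so rescue of toxicity appears as activation.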

Structure (SMILES)	growth rescue (activation)
Cc1ccccc1C(=O)Nc1cccc(NC(=O)c2cccnc2)c1	inactive: 2.95%
Brc1ccc(OCc2ccccc2)c(CNCC2CCCO2)c1 (configuration not stated)	inactive: -8.03%
CN(C(=O)c1cnc(N2CCN(c3ncccn3)CC2)c2ccccc12)c1ccc(Cl)cc1	inactive: 24.5%
COC(=O)CN1C(=S)N(c2ccc(OC)cc2)C(=O)/C1=C/c1cccs1	inactive: -5.35%
Cc1cccc(C)c1NC(=O)CSc1nnc(-c2ccco2)c(-c2ccco2)n1	inactive: 32.2%
Cc1cc(C(=O)N2CCN(S(=O)(=O)c3ccccc3C#N)CC2)c(C)o1	inactive: 25.2%
CCCn1c(SCC(=O)Nc2nc(-c3ccc(OC)cc3)cs2)nc2c1c(=O)n(C)c(=O)n2C	inactive: -21.8%
COc1ccccc1NC(=O)NC1(C(=O)NCC2CCCO2)CCCCC1 (configuration not stated)	inactive: 1.8%
O=C(Nc1nc2ccccc2s1)c1cc(-c2ccco2)nc2ccccc12	inactive: 8.01%
COc1cccc(-c2cnc(C(O)c3cc(C)cc(C)c3)[nH]2)c1 (configuration not stated)	inactive: 7.07%
O=C(NCC1CCCO1)C1CCCN(S(=O)(=O)c2cccc(C(F)(F)F)c2)C1 (configuration not stated)	inactive: 11.3%
O=C(CCCN1C(=O)/C(=C\c2cccs2)SC1=S)Nc1cc([N+](=O)[O-])ccc1O	inactive: 10.3%
CCCCc1ccc(NC(=S)NCc2cccc(OC)c2)cc1	inactive: 14.9%
CCCOc1ccc(C(C)=O)cc1Cc1c(O)nc(SC)[nH]c1=O	inactive: -2.04%
O=C(CSc1n[nH]c(-c2cc(Cl)ccc2Cl)n1)NCCN1C(=O)CSC1=O	inactive: -3.63%
CCOc1ccc(NC(=O)Cn2nnc(-c3nc(-c4ccncc4)no3)c2N)cc1	inactive: 11.8%
Cc1ccc(NCC(=O)N/N=C/c2cc(O)ccc2[N+](=O)[O-])cc1	inactive: -8.84%
COC(=O)c1cccc(NC(=O)CSc2nnc(-c3ccco3)o2)c1	inactive: 1.58%
O=C(CCc1nnc(CCCCc2ccccc2)o1)N1CCN(CCO)CC1	inactive: 11.7%
CN(c1ccc(C(=O)N2CCN(Cc3ccccc3)CC2)cc1)S(=O)(=O)c1ccccc1	inactive: -16.2%
COc1cc(C(=S)N2CCOCC2)cc(OC)c1OC(=O)c1ccccc1[N+](=O)[O-]	inactive: -10.7%
CC(NCC(=O)Nc1ccccc1C(=O)NC1CC1)c1cccc(Cl)c1 (configuration not stated)	inactive: 20.1%

Structure (SMILES)	growth rescue (activation)
COc1ccc(CNC(=O)COC(=O)Cc2ccc(Br)cc2)cc1	inactive: 16.7%
O=C(Nc1ccc([N+](=O)[O-])cc1)Nc1ccc(Cl)cc1F	inactive: -10.5%
CCCNC(=O)c1cc(C2CCCCN2S(=O)(=O)Cc2cccc(C(F)(F)F)c2)on1 (configuration not stated)	inactive: 34.9%
CCOC(=O)Nc1ccc2c(COC(=O)CN(C)S(=O)(=O)c3ccc(C)cc3)cc(=O)oc2c1	inactive: -1.87%
CCn1c(=O)c2cc(C(=O)N(C)c3ccccc3F)sc2c2ccccc21	inactive: 4.9%
CCCc1nnc(SCC(=O)Nc2ccc(OC)cc2)o1	inactive: -0.417%
Cc1cc(C)n(CCNS(=O)(=O)c2ccccc2)n1	inactive: 8.54%
COc1ccc(C2CCCN2C(=S)Nc2cccc(Cl)c2)cc1OC (configuration not stated)	inactive: 26%
O=C(Nn1c(-c2ccncc2)nc2ccccc2c1=O)c1ccc([N+](=O)[O-])cc1Cl	inactive: -2.17%
Cc1cc(C)c(NC(=O)CSc2nnnn2-c2cccnc2)c(C)c1	inactive: 7.15%
COc1cccc(CN2CCNC(=O)C2CC(=O)NCCc2ccccn2)c1 (configuration not stated)	inactive: -16%
O=C(c1cc(F)ccc1F)C1CCCN(C(=O)CCc2cnccn2)C1 (configuration not stated)	inactive: 14.7%
COC(CNC(=O)C1CCCN1C(=O)OCc1ccccc1)OC (configuration not stated)	inactive: -9.69%
Cn1c(=O)c2ccccc2n(Cc2ccccc2Cl)c1=O	inactive: 16.6%
CCOC(=O)c1cnc2c(C)cc(C)cc2c1Nc1ccc(S(=O)(=O)Nc2ncccn2)cc1	inactive: -29.3%
Cc1ccccc1NC(=O)Cn1cnc2c(oc3nc4c(cc32)COC(C)(C)C4)c1=O	inactive: -19.6%
Cc1ccc(N(CCC#N)C(=O)CCl)cc1C	inactive: -0.866%
O=c1cc(N2CCC3(CC2)OCCO3)[nH]c(=O)n1C1CCCCC1	inactive: -4.13%
COc1cccc(CN2C(=O)NC3(CCCCCC3)C2=O)c1	inactive: 17.7%
Cc1ccc(NC(=O)CN(C)Cc2cc(=O)n3ccsc3n2)cc1	inactive: -18.2%
CCC(=O)N(Cc1cc(=O)[nH]c2ccccc12)c1ccccc1	inactive: -5.82%
CS(=O)(=O)Nc1ccc(C(=O)Nc2ccccc2Cl)cc1	inactive: -5.35%

Structure (SMILES)	growth rescue (activation)
Cc1cc(NS(=O)(=O)c2ccc(NC(=O)/C=C/c3ccccc3)cc2)no1	inactive: 2.75%
CC1(C(=O)Nc2ccc3c(c2)OCO3)Cc2c(-c3cccc(C(N)=O)c3)ccnc2O1 (configuration not stated)	inactive: 7.09%
O=[N+]([O-])c1ccc(OCCCCN2CCCCC2)cc1	inactive: -1.45%
Cc1ccc(CNC(=O)CO/N=C/c2ccc(C(C)(C)C)cc2)cc1	inactive: -4.19%
CCOC(=O)c1ccc2ncc(C(=O)OCC)c(Nc3ccc(N4CCOCC4)cc3)c2c1	inactive: 11.7%
COCCNc1nc(-c2ccccc2)nc2ccccc12	inactive: 11.8%
CCN(C(=O)c1cc2c(=O)[nH]c3ccc(C)cc3c2s1)c1ccccc1F	inactive: -39.2%
CC1CCN(CCCn2c(=S)[nH]c3ccccc3c2=O)CC1	inactive: -13.3%
Cc1cc(C)nc(/N=C(\N)Nc2ccc(S(N)(=O)=O)cc2)n1	inactive: 11.9%
Cc1cc(N2CCOCC2)nc2ccc(NC(=O)CCC(=O)N3CCN(c4ccc(F)cc4)CC3)cc12	inactive: 14%
COc1cc(NC(=O)C2CCN(c3cnccn3)CC2)cc(OC)c1	inactive: -5.34%
CCCCN(C(=O)c1cccc(C)c1)c1c(N)n(CCC)c(=O)[nH]c1=O	inactive: 1.37%
CCOc1ccc(/C=C2\SC(=S)N(CCC(=O)Nc3cccc(C(=O)O)c3)C2=O)cc1	inactive: 0.0297%
COc1cc(/C=C/C(=O)C2C(=O)C=C(C)OC2=O)cc(OC)c1O (configuration not stated)	inactive: 4.44%
C=CCNc1ncnc2c1ncn2[C@H]1CN(Cc2cccc3ccccc23)C[C@@H](CO)O1	inactive: 1.37%
CN(Cc1ccc(C(F)(F)F)cc1)C(=O)c1ccc2ccccc2n1	inactive: 23.7%
COc1ccc(S(=O)(=O)Nc2ccc3c(c2)n(C)c(=O)n3C)cc1	inactive: 12.9%
O=C(CCCOc1ccccc1)Nc1ccccc1C(F)(F)F	inactive: 26.8%
N#Cc1ccc(/C=C/C(=O)c2cccnc2)cc1	inactive: -7.15%
CCOc1ccc(CN2CCN(Cc3cc4c(cc3Cl)OCO4)CC2CCO)cc1 (configuration not stated)	inactive: -4.9%
O=C(Nc1ccc(C(=O)O)cc1)/C(=C\c1cccc([N+](=O)[O-])c1)NC(=O)c1ccc(Br)o1	inactive: -3.62%
CCC(=O)c1cn(CC(=O)Nc2cccc(OC)c2)c2ccccc12	inactive: 3.89%

Structure (SMILES)	growth rescue (activation)
CS(=O)(=O)c1ncc(Cl)c(C(=O)Nc2ccc3ccccc3c2)n1	inactive: 18.3%
CCOc1cc(S(=O)(=O)n2ccnc2)ccc1Br	inactive: 11.6%
N/C(=N\OC(=O)c1ccccc1)c1ccncc1	inactive: 10.2%
Cc1cc(C)n(C2CC(=O)N(c3ccc(Cl)c(Cl)c3)C2=O)n1 (configuration not stated)	inactive: 6.39%
CCc1cccc(C)c1NC(=O)Cc1ccsc1	inactive: 14.4%
Cc1cc2nc(N3C(=O)CNC3=S)sc2cc1C	inactive: -6.75%
CCOC(=O)Cc1ccc(NC(=O)NC(C)c2c(-n3cccc3)sc(C)c2C)cc1 (configuration not stated)	inactive: 6.5%
COc1cc2cc(CN(Cc3cccnc3)C(=O)NCc3ccccc3)c(=O)[nH]c2cc1OC	inactive: 5.99%
Cc1c(C(=O)Nc2cccc(S(=O)(=O)N3CCOCC3)c2)oc2ccc(Br)cc12	inactive: 12.3%
COc1ccc(NC(=O)C2(S(=O)(=O)c3ccc(C)cc3)CC2)cc1	inactive: -0.63%
Cc1ccc(NC(=O)C(=O)NCCN2CCN(S(C)(=O)=O)CC2)cc1C	inactive: 16.4%
Cc1ccc(/C=N\NC(=O)CC(=O)NCCc2ccccc2)cc1	inactive: 6.75%
COC(=O)C(Cc1ccccc1)NC(=O)CNC(=O)c1sc2ccccc2c1Cl (configuration not stated)	inactive: 10.6%
CC(=O)Nc1sc2c(c1C(c1ccccc1)N1CCOCC1)CCCC2 (configuration not stated)	inactive: 22%
Cc1ccccc1C1NC(=O)Cc2ccccc21 (configuration not stated)	inactive: 4.83%
Cc1cccc(NC(=S)N2CCOCC2)c1C	inactive: 7.74%
CC(C(=O)NC1CCCC1)N(C(=O)Cn1nnc(-c2ccc(F)cc2)n1)c1ccccc1F (configuration not stated)	inactive: -7.59%
O=C(NC1(C(F)(F)F)N=C(c2ccccc2)NC1=O)c1ccccc1 (configuration not stated)	inactive: -7.77%
COc1ccccc1NC(=O)Nc1nc(C(N)Cc2ccccc2)cs1 (configuration not stated)	inactive: 1.41%
CN(C)S(=O)(=O)Oc1ccc(C(=O)Nc2cccc(Cl)c2)cc1	inactive: 7.65%
O=C(Nc1ccc(S(=O)(=O)N2CCCCC2)cc1)C1CCCN(C(=O)c2ccc(Cl)cc2)C1 (configuration not stated)	inactive: 2.2%
Cc1ccc2[nH]c(=O)c(CN(CCCN3CCOCC3)C(=O)Nc3ccc(Cl)cc3)cc2c1	inactive: 2.7%

Structure (SMILES)	growth rescue (activation)
CCN(C(=O)CSc1ccc2ccccc2c1)C1CCS(=O)(=O)C1 (configuration not stated)	inactive: 13.6%
CC(=O)Nc1cccc(Oc2ccc([N+](=O)[O-])cc2Cl)c1	inactive: -0.647%
N#Cc1ccc(C(=O)CN2CCN(c3ccccc3)CC2)cc1	inactive: 8.73%
O=C(NNC(=O)c1cccs1)c1ccc(Cl)cc1	inactive: 18%
CCCC(=O)Nc1ccc(-c2cn3cccnc3n2)cc1	inactive: 9.63%
CC(C)C(=O)Nc1ccc([N+](=O)[O-])cc1Br	inactive: 7.74%
O=C(COC(=O)c1ccc2ncsc2c1)Nc1ccc(OC(F)(F)F)cc1	inactive: 19.1%
Cc1cc(C(=O)CSc2nn3c(=O)c(C(C)(C)C)nnc3s2)c(C)n1C1CC1	inactive: 13.1%
COc1ccc(-c2[nH]ncc2CN2CCCO2)cc1F	inactive: 5.57%
Cn1cccc1C(=O)OCC(=O)NCc1cccs1	inactive: 13.3%
O=C(CCNC(=O)c1ccc([N+](=O)[O-])cc1)NCc1cccs1	inactive: 6.37%
COc1ccc(C2=NN(C(=O)c3ccco3)C(c3ccco3)C2)cc1OC (configuration not stated)	inactive: 14.2%
COc1ccc(NC(=O)CN2C(=O)NC(c3ccccc3)(c3ccccc3)C2=O)cc1	inactive: -4.91%
CC(=O)c1cccc(NC(=O)C(OC(=O)c2ccccc2NS(=O)(=O)c2cccs2)c2ccccc2)c1 (configuration not stated)	inactive: 19.9%
CCOC(=O)C1(Cc2cccc(Cl)c2)CCCN(C(=O)c2cc(C)on2)C1 (configuration not stated)	inactive: 18.9%
O=C(O)c1ccc(-n2c(/C=C\c3ccc(O)cc3)nc3ccccc3c2=O)cc1	inactive: 2.94%
CC(C)Cc1nc2sc3c(=O)[nH]cnc3c2c2c1CCCC2	inactive: 6.39%
CC(C)COc1ccc(CNC(=S)Nc2ccccc2)cc1Cl	inactive: 19.2%
COCCNc1nc(Nc2ccc(C#N)cc2)c2sccc2n1	inactive: 16.8%
